Experimental data: the supplement of paper PMC11417369
± gives the standard deviation of the averaged measurements. This is one part of the list.

Test system: PfAP2-G AP2 domain (GST-tagged)
Assay: gcPBM binding intensity (ln(normalized median fluorescence intensity)); higher = stronger DNA binding
Procedure, shortened: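 An Agilent 4 × 180k array carrying primer-extended double-stranded 36-bp intergenic genomic probes and negative controls received GST-tagged P. falciparum DNA-binding domains expressed in E. coli, about 25 μg on average, for 1 h. The binding buffer contained 1× PBS, 1% milk, 0.2 mg/ml BSA, 0.5% salmon testes DNA and 0.03% Triton X-100. Binding intensity is the top Masliner-normalised natural-log median intensity across replicate spots of either probe orientation, read after Alexa488 anti-GST antibody staining and a 488 nm scan.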

Sequence | gcPBM binding intensity (ln)
TTATATTATACATACACACCCATATAATATGTTTTT [CACACA_site4636] | 10.02 ± 0.085
ATATATTTATATAAATGTACATACAGCACATTTATA [XGTACX_site4725] | 10.8 ± 0.59
CAAATATACATATGTAGTACATGTTGTAGATAATTT [XGTACX_site2790] | 11.5 ± 0.85
GGATAATATATTAGAACACACATATAGATGTAAAAA [CACACA_site6229] | 10.06 ± 0.021
TACTTTATATAAAGATCAAAAAATAAATAATTATAA [TGCATGCA_negctrl_site446] | 9.985 ± 0.021
GAAGCCCTATGAAAAGTGCGGTTCATGAACAAAGAA [GTGCAC_site9828] | 10.1 ± 0.11
AGAATATTTAATTCAACACACATACATATTTATTAA [CACACA_site5318] | 9.81 ± 0.17
TATTGTATATACTATACACACACATACATACATACA [CACACA_site8172] | 10.6 ± 0.37
TTTGAATCCTTATATACACACATTATAAAATATTAT [CACACA_site6406] | 10.2 ± 0.23
ATAAGGAAGGGATGCACACAAAAGGGTACATAAGAA [CACACA_site4006] | 11.4 ± 0.71
TATTTGTAAATCGATACACACATATAGATTAATATA [CACACA_site6237] | 10.04 ± 0.057
ACCATTTGTAGGTAAACACACATTATTATTAATATC [CACACA_site2635] | 10.1 ± 0.18
ATGGATTATACGTGCACACATATATACAAATAAATA [CACACA_site640] | 10.6 ± 0.54
TACATCATACGAACAGTGCATATTATTATTGTTCTG | 9.955 ± 0.007
TAAAATGCAATCTGAACACACATATTTTTTTAATAT [CACACA_site6922] | 9.76 ± 0.17
ATGTATATTACTCATTGTACTTATATTTTCTTATTA [XGTACX_site8897] | 11.2 ± 0.74
TATATATCATATGATACATGCAACAAAATGCATAAT [TGCATGCA_site205] | 9.93 ± 0.13
TACTTACCAAAATACACACACACACTAGATATATAA [CACACA_site5096] | 10.1 ± 0.16
GGATATTCATTAACCACACACACAAAAAAAATAAAA [CACACA_site3800] | 10.2 ± 0.25
GTATTTATAAATTATAGTACTTTGCGTATCATATAT [XGTACX_site7358] | 11.2 ± 0.58
ATTTTATATCTGGATAGTACTTTAATATTTCAAATG [XGTACX_site7304] | 10.9 ± 0.41
AGAATTCGTTTAAAAAGTACATTCAATTTAATAATG [XGTACX_site6603] | 11.2 ± 0.86
AATATTTTAAAAAAAAGTACATTATATATATATGTT [XGTACX_site8073] | 11.4 ± 0.91

Sequence | gcPBM binding intensity (ln)
TAGTATTAAAATATTTGTACTTATATGTATTATATA [XGTACX_site538] | 11 ± 0.69
TGTAGTCTGGAGAAGAGTACACAGTATCTGGTAACA [XGTACX_site2038] | 11.5 ± 1.1
TGTATATATAAACATGCACACGTGGTTGTATATATA [CACACA_site9078] | 10.2 ± 0.23
TCATAGTATAGACACACACACACACGCATATAAATA [CACACA_site6915] | 10.2 ± 0.18
TCTTTGTAAATTTCTTGTACGTAAATTTTTTTTAGG [XGTACX_site7062] | 11.5 ± 0.93
TATTTTACATCTTCTCACATTTTATCACTTTTTAAA [CACACA_negctrl_site330] | 10.13 ± 0.078
AATAAAAAGGAACACACACACACACGGATATAAATA [CACACA_site7658] | 10.2 ± 0.2
ATTTATTTATTGGCACGTACAAATTTGTGTTTTCCA [XGTACX_site6978] | 11.2 ± 0.67
TTGTAAATTTCTGGTTATATATTTTATGTATATGTT [CACACA_negctrl_site1443] | 9.97 ± 0.11
TTTTTTTCTTTTCAAACACACAATTGGTATATATCA [CACACA_site7542] | 10.2 ± 0.42
TTTTTTTTATGGTACACACACGCGTATGGTTGCACG [CACACA_site1877] | 11.5 ± 0.91
TTATTTTTGTTCATAGTGCATAGAATTTATACATAT | 10.1 ± 0.16
ATAGACAGCGCACAAACACACAAACACAGACCCCCA [CACACA_site4409] | 10.9 ± 0.61
ATATATTTAAACTACACACGCATATCTTAGAAATAA [CACACA_site1272] | 10.06 ± 0.021
TATAAAAAAAGAGGAGGGATGGTATACTTGTGGTTT [TGCATGCA_negctrl_site49] | 9.78 ± 0.071
AAAGAAATGAAATATACACACATACATAAATACATA [CACACA_site6081] | 10.01 ± 0.057
AATTATATATTATAATGTACATATATATAACTATAC [XGTACX_site1865] | 11.1 ± 0.64
ATAAAGGAAATTACAAGTACAAATAAGATAAAATAA [XGTACX_site4514] | 11.1 ± 0.57
CGTATATGACAAAAGCGTACGCATCAGCAGAAAAAT [XGTACX_site6248] | 11.4 ± 0.88
ATATATATATATATATGTACTGAATAAAGAACAAAA [XGTACX_site5400] | 11 ± 0.64
AGAAATAAGAAATATACACACATATAAATATAAATA [CACACA_site7342] | 9.81 ± 0.028
AAAAAAAATGATAATATACACACTTATGGGAGAGCG [CACACA_site2516] | 9.745 ± 0.007
TATATTTTTTAAACCACACACAATATAGAGTAGAAT [CACACA_site613] | 10.29 ± 0.049

Sequence | gcPBM binding intensity (ln)
TAATGTACATAAACCGCACACATATAAAAAAATAAA [CACACA_site2851] | 11.1 ± 0.95
AGGGGAAATAAAATATAAATTATCATATATATATAT [XGTACX_negctrl_site366] | 9.73 ± 0.28
AGAATATGTTAAAAAAGTACATACTCTTTATATACG [XGTACX_site79] | 11.4 ± 0.79
TAAAAAAAAACATATACACACAAAAACGTACACATA [CACACA_site1354] | 11.8 ± 1.1
TTTTTTTCTCACAATCGTACATAAATACATATATAT [XGTACX_site3150] | 11.1 ± 0.75
AATACAGAGGAAAATACACACGTATATATATAAATA [CACACA_site9125] | 10.14 ± 0.035
TAGAATAATCCTTACACACACACACCCACGAATAAA [CACACA_site483] | 10.4 ± 0.42
TGCAATGGAGCATAAAGTACATATAATTGTATTTTT [XGTACX_site7349] | 11.1 ± 0.46
TTTTAAAATTATTAGGTGCATATTTATTCTATATTT | 9.92 ± 0.028
TGTTTTTTTATTTTCACACATAATCCAATTATACAT [CACACA_site6070] | 10.2 ± 0.13
TTTTAAAAAAAAAAAAAAAAAAAAAAAAAAAAAAAA [CACACA_negctrl_site1343] | 9.55 ± 0.2
AGGTCTATATAATAAGTGCATTTTTTTTTTTTTTTT [GTGCAC_site9664] | 10.2 ± 0.26
GTTATACTCATCAACACACACATACAACGTGGTGTA [CACACA_site4789] | 9.955 ± 0.078
TTAAAAAAATATAGAGCATGCTAAAAATAAAAAAAT [TGCATGCA_site794] | 9.71 ± 0.12
AATAAAAATAATATAGTGCATAATATAAGGAAAAAA | 10 ± 0.028
CAACACTTAGATTTTAAGTTCACTGGTTAATATATA [CACACA_negctrl_site707] | 10 ± 0.15
CACATAAAAAAATAAACACACATATGTATTTATATA [CACACA_site5718] | 9.82 ± 0.31
CATATCATTGATTATAGTACACATACCATTTTTTAT [XGTACX_site6572] | 11.2 ± 0.86
ATCAACAAAACATACACACACATATATATATATATA [CACACA_site2989] | 10.1 ± 0.34
TTTCTATATCTATTTAATTAACTTTTTATACTGATT [GTGCAC_negctrl_site415] | 9.68 ± 0.14
GCATCTCATTTGTGATGTACTATATTATCCGTTTTT [XGTACX_site7576] | 10.9 ± 0.74
TTTTTTGTTAAAAGAGTGCAAATTTTTAAAGATTTG [GTGCAC_site9502] | 10.2 ± 0.46
TATATGTTTGAATATACACACAACATATTTATATAT [CACACA_site7832] | 9.875 ± 0.064

Sequence | gcPBM binding intensity (ln)
AAAAAAAAAAAATATGTACACACATATATAATACAT [CACACA_site8473] | 11.4 ± 0.95
AAATACATTAAAATGACATGCAGATATATATCAAAA [TGCATGCA_site477] | 9.83 ± 0.085
TATATATCAATATTTACACACATGCGCCCACATAAA [CACACA_site7185] | 10.8 ± 0.45
AGTAATATAATATAAGCACACGTGTATTTATTTAGG [CACACA_site7921] | 10.18 ± 0.057
AAAAAAAAAAAAAAATACAAGCACATTTATATAAGC [GTGCAC_negctrl_site695] | 10.04 ± 0.057
TGCTTATATTTTTATACACACAAGATACTTTTTGTT [CACACA_site1535] | 10.3 ± 0.16
ATCTAAATAAAGTTAACACACACATAATATATATAT [CACACA_site8055] | 10.1 ± 0.28
AAAAAAAAAAGACACACACACACAAATACATACACA [CACACA_site6472] | 10.3 ± 0.3
TGAATAAAGATATATACACACATATAGGTATATATC [CACACA_site6870] | 9.795 ± 0.021
TTTTTTTCTTTTGGGAGTACCAACATTTTCACATAT [XGTACX_site1371] | 11.3 ± 0.75
CTATGCCCCATATAAACACACAAATAAAAAGAATAT [CACACA_site2681] | 10.1 ± 0.17
TTATGTAAATGCTTATGTACTTATTACAATATTTTT [XGTACX_site4057] | 11.1 ± 0.69
AAAACAAATAAGTAAACACACATATAAAATCTATAT [CACACA_site7262] | 9.835 ± 0.049
CCTATTTATTTATACACACACATATATAAATAAATA [CACACA_site7417] | 10.3 ± 0.38
TAAGAATTGAAAAAATGTACACAATATAAAATTGAA [XGTACX_site698] | 11.3 ± 0.77
AAAAAGAATAAATAAATAAATAAATATATATATATA [GTGCAC_negctrl_site584] | 9.98 ± 0.55
ATATTATATAAATACACACACACATGCATGCACATA [CACACA_site4236] | 10.2 ± 0.11
TTTATTACTATGTAAACACACATGCAATATATGTTA [CACACA_site1114] | 9.92 ± 0.014
AAAAAGAAAAAAAAATGTACATAAAGTCTAATGATA [XGTACX_site4781] | 11.1 ± 0.44
TATATATATTATATATGTACATATATTTTTTTTTTT [XGTACX_site127] | 11.2 ± 0.81
